Source: patent US20210147571A1, “MONOCLONAL ANTIBODY TARGETING HUMAN TUMOR STEM CELLS AND USE THEREOF” (Suzhou Bojuhua Biomedical Technology Co. Ltd, priority 2017, published 2021)

What was measured:
[1] = biological target: target antigen of Hetumomab (human); test: flow immunofluorescence; SNU-5 sphere cells
[2] = biological target: target antigen of Hetumomab (human); test: flow immunofluorescence; BGC-823 sphere cells
[3] = biological target: target antigen of Hetumomab (human); test: flow immunofluorescence; SNU-5 parental cells
[4] = biological target: target antigen of Hetumomab (human); test: flow immunofluorescence; MHCC-97L sphere cells
[5] = biological target: target antigen of Hetumomab (human); test: flow immunofluorescence; BGC-823 parental cells
[6] = biological target: target antigen of Hetumomab (human); test: flow immunofluorescence; MHCC-97L parental cells
[7] = biological target: target antigen of Hetumomab (human); test: flow immunofluorescence; BEL7402 V13 sphere cells
[8] = biological target: target antigen of Hetumomab (human); test: flow immunofluorescence; BEL7402 V13 parental cells

Row | positive rate (percent positive cells) [1] | positive rate (percent positive cells) [2] | positive rate (percent positive cells) [3] | positive rate (percent positive cells) [4] | positive rate (percent positive cells) [5] | positive rate (percent positive cells) [6] | positive rate (percent positive cells) [7] | positive rate (percent positive cells) [8] | Binder
1 | 6.2% | 6.26% | 3.68% | 16.2% | 3.84% | 7.35% | 12% | 7.12% | humanized antibody Hetuzumab H5L6 (antibody, human IgG1, kappa) heavy: QVTLKESGPTLVKPTQTLTLTCTFSGFSLSTSGMGVSWIRQPPGKALEWLAHIYWDDDKRYNPSLKSRLTISKDTSKNQVVLTMTNMDPVDTATYYCARSFYYYAANSFAYWGQGTLVTVSS[human IgG1 constant region left out here] light: DIVMTQTPFSNPVTLGTSASISCRSSKSLLHSNGITYLYWFLQKPGQSPQLLIYQMSNLASGVPDRFSGSGSGTDFTLKISRVEAEDVGVYYCAQNLELYTFGQGTKVEIKRTVAAPSVFIFPPSDEQLKSGTASVVCLLNNFYPREAKVQWKVDNALQSGNSQESVTEQDSKDSTYSLSSTLTLSKADYEKHKVYACEVTHQGLSSPVTKSFNRGEC
2 | 5.92% | 5.42% | 3.59% | 14.7% | 3.39% | 6.85% | 11.3% | 6.94% | humanized antibody Hetuzumab H5L11 (antibody, human IgG1, kappa) heavy: QVTLKESGPTLVKPTQTLTLTCTFSGFSLSTSGMGVSWIRQPPGKALEWLAHIYWDDDKRYNPSLKSRLTISKDTSKNQVVLTMTNMDPVDTATYYCARSFYYYAANSFAYWGQGTLVTVSS[human IgG1 constant region left out here] light: DIVMTQTPFSNPVTLGQPASISCRSSKSLLHSNGITYLYWFLQKPGQSPQLLIYQMSNLASGVPDRFSGSGSGTDFTLKISRVEAEDVGVYYCAQNLELYTFGQGTKVEIKRTVAAPSVFIFPPSDEQLKSGTASVVCLLNNFYPREAKVQWKVDNALQSGNSQESVTEQDSKDSTYSLSSTLTLSKADYEKHKVYACEVTHQGLSSPVTKSFNRGEC
3 | 4.1% | 4.44% | 2.63% | 10.6% | 2.9% | 5.25% | 8.39% | 5.38% | humanized antibody Hetuzumab H5L12 (antibody, human IgG1, kappa) heavy: QVTLKESGPTLVKPTQTLTLTCTFSGFSLSTSGMGVSWIRQPPGKALEWLAHIYWDDDKRYNPSLKSRLTISKDTSKNQVVLTMTNMDPVDTATYYCARSFYYYAANSFAYWGQGTLVTVSS[human IgG1 constant region left out here] light: DIVMTQTPFSLPVTLGQPASISCRSSKSLLHSNGITYLYWFLQKPGQSPQLLIYQMSNLASGVPDRFSGSGSGTDFTLKISRVEAEDVGVYYCAQNLELYTFGQGTKVEIKRTVAAPSVFIFPPSDEQLKSGTASVVCLLNNFYPREAKVQWKVDNALQSGNSQESVTEQDSKDSTYSLSSTLTLSKADYEKHKVYACEVTHQGLSSPVTKSFNRGEC
